Assay results taken from PubChem BioAssay AID686979 (National Center for Advancing Translational Sciences (NCATS), 2013).
“And” between values parts separate entries of the source, which are not always exact repeats. Equal values may be shown once. Out of some 420,000 compounds screened, about 50,000 (12%) were called active. Inconclusive means that the source gave no clear call. Such entries were picked first, then a sample of the others. The call rests on the fitted dose curve; in most records, active means well fitted inhibition curve with a large enough effect; inconclusive means small, poorly fitted or top-dose-only effect; inactive means flat fitted curve, though single readings scatter. Potencies of inconclusive entries are doubtful fits and often do not repeat.

Assay: qHTS for Inhibitors of human tyrosyl-DNA phosphodiesterase 1 (TDP1): qHTS in cells in presence of CPT; further: nearly all actives have a fitted effect of over 55% in size
Conditions: chicken DT40 Tdp1-/-;hTDP1 cells + 20 nM CPT, ATP luminescence, 48 h; activity change, negative = growth inhibition: at 46.2 µM (top of the series) unless noted
Summary of the method: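 Chicken DT40 Tdp1-/- cells stably complemented with human TDP1 were seeded at 400 cells/well in medium containing 20 nM camptothecin, exposed to pin-transferred compounds, and grown at 37 °C for at least 48 hr. Viability was read as ATP luminescence.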
On the % scale 0 is the no-effect control and ±100 the full control effect; potency means the concentration at half of the fitted maximal effect; tags describe the fitted curve by direction and shape.

Row | Compound | Potency | activity change, negative = growth inhibition
1 | O=C(Nc1ccc(F)cc1)Nc1cccnc1 | inconclusive: 18.4 µM [inhibitor, single point] | –
2 | CCCc1nc2oc3c(NCc4ccccn4)ncnc3c2c2c1COC(C)(C)C2 | active: 14.6 µM | –
3 | COc1ccc(C(=O)Nc2ccccc2C(=O)Nc2cc(C)ccn2)cc1 | inconclusive: 18.4 µM [inhibitor, single point] | –
4 | O=C(CSc1ccc(Cl)cc1)Nc1cccc(-c2nc3ncccc3o2)c1 | inconclusive: 20.6 µM [inhibitor, single point] | –
5 | CSc1ccc(S(=O)(=O)Nc2ccc(F)cc2)cc1 | inconclusive: 20.6 µM [inhibitor, partial curve] | –
6 | O=C(NNc1c2ccccc2nc2ccccc12)c1ccc(Cl)cc1 | inconclusive: 20.6 µM [inhibitor, single point] | –
7 | Cc1ccccc1-c1noc(CSc2nc(-c3ccc(F)cc3)cc(=O)[nH]2)n1 | inactive | –
8 | COc1cccc(C(C(=O)NC2CCCCC2)N(C(=O)Cc2cccs2)c2ccc(-n3cnnn3)c(OC)c2)c1 (centres undefined) | inconclusive: 18.4 µM [inhibitor, single point] | –
9 | COC(=O)Cc1c(C)c2ccc3c(c2oc1=O)CN(Cc1ccc(C)cc1)CO3 | inconclusive: 25.9 µM [inhibitor, single point] | –
10 | O=C(CNc1ccc(C(F)(F)F)cc1)Nc1cccc(S(=O)(=O)N2CCCCC2)c1 | inconclusive: 20.6 µM [inhibitor, single point] | –
11 | O=C(COc1ccccc1)NCCS(=O)(=O)N1CCN(c2ccccc2)CC1 | inconclusive: 23.1 µM [inhibitor, single point] | –
12 | N#Cc1ccc(NC(=S)N2CCC3CC2c2cc(-c4ccc5c(c4)OCO5)ccc23)cc1 (centres undefined) | inconclusive: 29.1 µM [inhibitor, single point] | –
13 | CCc1nc2c(OCC(N)=O)cccn2c1N(C)C(=O)c1ccc(OC)cc1 | inactive | –
14 | CCOC(=O)c1ccc(NC(=S)N(CCCN2CCCCC2)Cc2ccco2)cc1 | inactive | –
15 | Cc1ccc(NC(=O)Cn2nc(C(F)(F)F)c3c2CCC3)cc1C | inconclusive: 29.1 µM [inhibitor, single point] | –
16 | CC(C)COc1ccc(C(=O)Nc2onc3c2CCCC3)cc1 | active: 13 µM | –
17 | C/C(=N\NC(=S)Nc1cccc(C)c1)c1ccco1 | inconclusive: 20.6 µM [inhibitor, single point] | –
18 | O=C(c1cc(Cl)ccc1F)N1CCCC(Nc2ccc3c(c2)OCCO3)C1 (centres undefined) | inconclusive: 25.9 µM [inhibitor, single point] | –
19 | CCN(CC)c1ccc(NC2=C(Cl)C(=O)c3ccccc3C2=O)cc1 | active: 10.3 µM | –
20 | C=CCn1c(-c2ccc(S(=O)(=O)N3CCOCC3)cc2)csc1=Nc1ccccc1 | active: 6.51 µM | –
21 | Clc1ccc(OCc2nn3c(-c4ccccc4)nnc3s2)c(Cl)c1 | inconclusive: 18.4 µM [inhibitor, single point] | –
22 | CCc1ccccc1NS(=O)(=O)c1ccc2[nH]cc(C(=O)NC3CCCC3)c(=O)c2c1 | inconclusive: 20.6 µM [inhibitor, single point] and inconclusive: 18.4 µM [inhibitor, single point] | –
23 | CCOc1ccc(S(=O)(=O)NCc2ccccn2)cc1NC(=O)c1ccccc1F | active: 0.651 µM | –

Row | Compound | Potency | activity change, negative = growth inhibition
24 | Cc1cccc(NC(=O)CSCC(=O)Nc2cc(Cl)ccc2N2CCN(C)CC2)c1 | inconclusive: 25.9 µM [inhibitor, single point] | –
25 | O=C(NCCN1CCOCC1)c1ccccc1N1C(=O)[C@@H]2Cc3c([nH]c4ccccc34)C(c3ccccc3)N2C1=O (some centres undefined) | inconclusive: 18.4 µM [inhibitor, single point] | –
26 | O=C(Cc1ccccc1)Nc1cccc(N2CCCC2)c1 | – | inconclusive: -33% [inhibitor]
27 | O=C(Nc1ccccc1)C1=C[C@H](c2coc3ccccc3c2=O)C[C@H](OCc2ccc(CO)cc2)O1 | inconclusive: 18.4 µM [inhibitor, single point] | –
28 | COc1ccc(CCC(=O)NC2CCC(C)CC2)cc1 (centres undefined) | inactive | –
29 | CC/C(=N\NC(=O)c1ccncc1)C12CC3CC(CC(C3)C1)C2 | inactive | –
30 | COc1ccc(-c2noc(-c3ccc(NCc4ccco4)c([N+](=O)[O-])c3)n2)cc1OC | active: 13 µM | –
31 | Cc1cnc(C(=O)N2CCCC(C(=O)c3ccc(C(F)(F)F)cc3)C2)cn1 (centres undefined) | inconclusive: 16.4 µM [inhibitor, single point] | –
32 | COc1ccc(C2/C=C\CN(C(=O)Nc3ccc(C(F)(F)F)cc3)CC(=O)N2Cc2ccc(F)cc2)cc1 (centres undefined) | active: 14.6 µM | –
33 | COC(=O)CCCCCN1C(=O)NC(C2CC2)C(C(=O)OCc2ccccc2)=C1C (centres undefined) | active: 16.4 µM | –
34 | Cc1cccc(CNC(=O)CCCN2C(=O)c3cccnc3Oc3ccccc32)c1 | inconclusive: 18.4 µM [inhibitor, single point] | –
35 | CCC(=O)c1ccc2ncccc2c1 | inactive | –
36 | O=C(OCC(=O)c1c[nH]c2ccccc12)c1cccc(S(=O)(=O)N2CCCCCC2)c1 | inconclusive: 23.1 µM [inhibitor, single point] | –
37 | CCOc1ccc(S(=O)(=O)Nc2cccc(C(=O)NCC(c3ccccc3)N(C)C)c2)cc1 (centres undefined) | active: 23.1 µM | –
38 | Cc1cc(=O)n(-c2ccc3ccccc3n2)[nH]1 | active: 18.4 µM | –
39 | COc1c(Br)cc(C(N)=O)cc1OCc1ccccc1 | inactive | –
40 | Cc1ccc(S(=O)(=O)N(C)C)cc1NC(=O)CSc1ncc(C(F)(F)F)cc1Cl | inconclusive: 13 µM [inhibitor, partial curve] | –
41 | CN(CC(=O)Nc1ccccc1Cl)C(=O)c1cc2c(s1)CCCCC2 | inconclusive: 23.1 µM [inhibitor, single point] | –
42 | COc1cccc(/C=C2\Oc3cc(OC(=O)N4CCOCC4)ccc3C2=O)c1 | inconclusive: 29.1 µM [inhibitor, single point] | –
43 | COc1ccc(NC(=O)COc2cccc3c2OC(C)(C)C3)cc1OC | active: 20.6 µM | –
44 | O=C(Nc1cccnc1)c1ccc([N+](=O)[O-])o1 | active: 9.2 µM | –
45 | CCC1(C)Cc2c(sc3nnn(CC(=O)Nc4ccc(C)cc4)c(=O)c23)CO1 (centres undefined) | inconclusive: 13 µM [inhibitor, partial curve] | –
46 | Cc1cc(C)c(O)c(-c2n[nH]c3c2C(c2cccc(O)c2)N(Cc2ccco2)C3=O)c1 (centres undefined) | inconclusive: 20.6 µM [inhibitor, single point] | –

Row | Compound | Potency | activity change, negative = growth inhibition
47 | COc1ccccc1N1CCN(C(=O)c2cc3sccc3n2C)CC1 | inconclusive: 23.1 µM [inhibitor, partial curve] | –
48 | CC(C)c1ccc(NC(=S)Nc2cccc3ccccc23)cc1 | active: 18.4 µM | –
49 | c1c2c(cc3sc(N4CCOCC4)nc13)OCCO2 | inconclusive: 10.3 µM [inhibitor, partial curve] | –
50 | CCC(CC)c1nnc(NC(=O)CC(C)c2ccccc2)s1 (centres undefined) | inactive | –
51 | CC(C)C(CCNCc1ccccn1)c1ccc(Cl)cc1 (centres undefined) | inconclusive: 29.1 µM [inhibitor, single point] | –
52 | CO[C@H]1[C@H](NC(=O)c2ccsc2)c2ccccc2C12CCN(Cc1cccc3ncccc13)CC2 | – | inactive: -10.6% [at 9.04 µM]
53 | O=C(c1ccc(N2CCOCC2)c([N+](=O)[O-])c1)N1CCN(c2ccccc2F)CC1 | inconclusive: 18.4 µM [inhibitor, single point] | –
54 | O=C(CSc1nnc(-c2c[nH]c3ccccc23)o1)c1ccc(-c2ccccc2)cc1 | inconclusive: 18.4 µM [inhibitor, single point] | –
55 | O=C(CN1C(=O)c2ccccc2C1=O)OCC(=O)N1CCCCC1 | inactive | –
56 | CCC(C(=O)NC(C)(C)C)n1c(-c2ccc(C)cc2)nc2ccccc21 (centres undefined) | inactive | –
57 | O=C(CCN1CCCCC1)NNC(=O)C12CC3CC(CC(C3)C1)C2 | inactive | –
58 | Oc1ccc(/C=C/c2nc(-c3ccccc3O)n(-c3ccccc3)n2)cc1 | inconclusive: 25.9 µM [inhibitor, single point] | –
59 | CN(CC(=O)Nc1ccccc1Sc1ccccc1)Cc1nc2ccccc2c(=O)[nH]1 | inconclusive: 29.1 µM [inhibitor, single point] | –
60 | Cc1ccc(C2=NN(CCC(=O)NCCc3cccc(C)c3)C(=O)CC2)cc1 | inconclusive: 29.1 µM [inhibitor, single point] | –
61 | O=C(/C=C/NNC(=O)c1ccccc1)c1ccccc1 | active: 0.58 µM | –
62 | Nc1nc(C(c2ccccc2)c2ccccc2)cs1 | inconclusive: 23.1 µM [inhibitor, single point] | –
63 | O=C(COc1cccnc1[N+](=O)[O-])Nc1ncc(Cl)cc1Cl | inconclusive: 16.4 µM [inhibitor, single point] | –
64 | CC(C)C(=O)Nc1sc2c(c1C(N)=O)CCN(Cc1ccccc1)C2 | inconclusive: 29.1 µM [inhibitor, single point] | –
65 | O=C(CSc1nc(O)cc(=O)n1C1CCCC1)Nc1cccc(Cl)c1Cl | inconclusive: 6.51 µM [inhibitor, single point] | –
66 | Cc1ccccc1CC(=O)Nc1ccc2c(c1)c(=O)n(C)n2-c1cccs1 | inconclusive: 25.9 µM [inhibitor, single point] | –
67 | CCOC(=O)c1[nH]c2ccc(F)cc2c1NC(=O)C(C)N1CCc2cc(OC)c(OC)cc2C1 (centres undefined) | inconclusive: 23.1 µM [inhibitor, single point] | –
68 | O=S(=O)(Nc1nc2ccccc2nc1N1CCc2ccccc2C1)c1ccc(Br)cc1 | inconclusive: 29.1 µM [inhibitor, single point] | –
69 | O=C(COC(=O)CN=C1NS(=O)(=O)c2ccccc21)Nc1ccccc1OC(F)F | inactive | –
